About 230 (0.21%) of roughly 110,000 compounds showed an effect of 50% or more. Some of the results follow.
molecular target: DPAP1 (Plasmodium falciparum, UniProt Q8IIJ9); test: primary screen, percent inhibition; read by cleavage of a fluorogenic dipeptide substrate; higher = more effect of the substance; set-up: species or system P. falciparum D10 trophozoite lysates; single well
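Further: 30 min substrate incubation versus DMSO and 10 µM JCP410 controls.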

DPAP1, sequence (Q8IIJ9 whole entry, looked up): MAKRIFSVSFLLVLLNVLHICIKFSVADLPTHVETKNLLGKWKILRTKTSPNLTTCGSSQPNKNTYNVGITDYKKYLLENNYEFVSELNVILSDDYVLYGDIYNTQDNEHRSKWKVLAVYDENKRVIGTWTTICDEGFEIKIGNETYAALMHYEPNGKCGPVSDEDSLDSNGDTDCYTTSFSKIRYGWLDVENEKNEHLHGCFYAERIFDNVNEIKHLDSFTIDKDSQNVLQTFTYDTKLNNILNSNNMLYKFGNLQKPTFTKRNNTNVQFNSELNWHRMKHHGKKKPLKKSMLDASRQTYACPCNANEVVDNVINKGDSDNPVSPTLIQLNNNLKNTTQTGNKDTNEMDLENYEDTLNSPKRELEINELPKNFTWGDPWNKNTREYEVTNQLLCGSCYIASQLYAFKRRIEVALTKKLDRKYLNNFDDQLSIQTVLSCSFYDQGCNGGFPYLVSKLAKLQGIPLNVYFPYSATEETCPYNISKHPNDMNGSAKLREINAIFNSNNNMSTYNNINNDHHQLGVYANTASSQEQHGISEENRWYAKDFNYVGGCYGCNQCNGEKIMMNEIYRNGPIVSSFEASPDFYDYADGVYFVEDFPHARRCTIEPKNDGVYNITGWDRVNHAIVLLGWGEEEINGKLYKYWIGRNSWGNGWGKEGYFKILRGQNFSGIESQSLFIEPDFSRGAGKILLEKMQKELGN

Structure (SMILES)	% Inhibition @ 10 uM [%]
O=C(Nc1ccccc1)N1CCOCC1	-3.95
Cc1ccc(S(=O)(=O)Cc2ccc(C(=O)NCc3ccc4c(c3)OCO4)o2)cc1	0.458
O=C(O)CN1CC(=O)Oc2ccccc21	-5.5
O=C(CN1C(=O)c2cccc3cccc1c23)NC1CC2CCC1C2 (stereo not drawn)	2.06
Cc1ccc(-n2c(-c3ccccc3)cc3c2CC(C)(C)CC3=O)cc1C	3.61
Sc1nnc(-c2ccncc2)n1-c1ccccc1	1
CCOC(=O)c1[nH]c2ccccc2c1NC(=O)C(C)(C)C	0.121
CCn1c(CCNC(=O)Cc2ccccc2)nc2ccccc21	-0.58
CC(=O)Nc1ccc(S(=O)(=O)Nc2nc3ccccc3nc2Nc2ccccc2)cc1	-0.216
CCOC(=O)c1c(CN2CCOCC2)n(-c2ccccc2)c2cc(Br)c(O)cc12	4.95
Cc1ccc(C2(c3ccc(C)o3)C(=O)Nc3ccccc32)o1	4.68
CCNC(=O)C12N=CNN=C1N(C)C(=O)N2C (stereo not drawn)	-5.15
O=C(N/C(=C/c1ccccc1)C(=O)N1CCc2ccccc2C1)c1ccccc1	2.18
Cc1c(C)n(C)c2ccc(C(=O)Nc3ccc(C(N)=O)cc3)cc12	-4.89
Cc1nn(CC(=O)NC2CCCC(C)C2C)c(=O)c2c1sc1ccccc12 (stereo not drawn)	-1.01
COc1cc(-c2cc(NC(=O)Cc3noc4ccc(C)cc34)on2)cc(OC)c1OC	-1.38
Cc1nc2c(c(C)c1CCC(=O)NCC1CCCO1)c(=O)n(C)c(=O)n2C (stereo not drawn)	-8.91
Nc1c(C(=O)Nc2nccs2)sc2nc3c(c(-c4cccs4)c12)CCCCC3	-2.17
Cc1csc(NC(=O)CCc2c(C)nc3c(-c4ccc(F)cc4)c(C)nn3c2C)n1	-4.1
Clc1ccc(CN2CCN(Cc3cccnc3)CC2)cc1	6
O=S1(=O)N=C(Nc2c(Cl)cc(Cl)cc2Cl)c2ccccc21	-1.57
C=CCSc1ncc(C(=O)OCC)c(N)n1	2.9
COc1cc(NC(=O)C23CC4CC(CC(C4)C2)C3)c(OC)cc1Cl	0.317
Nc1nnc(SCC(=O)Nc2ncc(Br)cc2Br)s1	17.9
CC(NC(=O)c1cccc(Br)c1)c1ccccc1 (stereo not drawn)	-1.69
Cc1ccc(-c2nnc(NC(=O)c3cc4c([nH]c5ccccc54)c(C)n3)s2)cc1	-6.7

Structure (SMILES)	% Inhibition @ 10 uM [%]
CCn1c(=N)c(C(=O)NC)cc2c(=O)n3ccccc3nc21	5.1
Cc1ccc(-n2c(S)nnc2Cn2ncc3ccccc3c2=O)cc1	2.31
CC(C)c1ccc(CN2CCN(C)CC2)cc1	-7.6
CN(CC(=O)NC1CCCCCC1)S(=O)(=O)c1ccc(-c2ccc(O)nn2)s1	-10.2
CCc1c(CN2CCOCC2)csc1C	2.83
CC(C)Cc1cc(C(=O)NCCc2ccccc2)no1	1.23
COc1cc(OC)c(NC(=O)CC(O)(C(F)(F)F)C(F)(F)F)cc1Cl	-6.66
CC(=O)Nc1ccc(S(=O)(=O)NCc2cccnc2)cc1	3.8
O=S(=O)(Cc1ccccc1)CC1CC1(Cl)Cl (stereo not drawn)	-5.51
Cc1cccc(NC(=O)c2ccc(Br)o2)c1C	-3.39
Cc1ccc(CNC(=O)CN(C)S(=O)(=O)c2c[nH]cn2)cc1	-7.28
COc1cc(CN2CCN(C(=O)COc3ccccc3)CC2)cc(OC)c1OC	8.6
Cn1nc(C(=O)N2CCC3(CC2)OCCO3)c2c1-c1ccccc1S(=O)(=O)C2	1.79
COc1ccc(C=C(C#N)C#N)c(OC)c1	1.7
CCCCNC(=O)c1sc2ccccc2c1Cl	-0.687
CCOc1ccc(C2C=C(c3ccc(C(C)C)cc3)Nc3nnnn32)cc1 (stereo not drawn)	-1.69
CN(CCCc1ccco1)S(=O)(=O)c1ccc(-c2cc(C(F)(F)F)no2)s1	1.73
Cc1cc(C)c2oc(C(=O)Nc3nnc(CC(C)C)s3)cc(=O)c2c1	3.51
CC(=O)Nc1c(C(=O)N2CCCCCC2)cnn1-c1ccccc1Cl	-1.39
Cc1[nH]c2ccc(C(=O)NCCc3ccc(S(N)(=O)=O)cc3)cc2c1C	-2.65
C=CCN(c1ccccc1)S(=O)(=O)c1ccc(N2C(=O)c3ccccc3C2=O)cc1	2.92
Fc1ccc(N2CCN(Cc3cccc(Cl)c3)CC2)cc1	-0.192
O=C1C(=Cc2c[nH]c3ccccc23)C(=O)N(c2ccccc2)C(=S)N1c1ccccc1	9.94
Cc1oc(-c2cccs2)nc1CSCC(=O)NCCc1ccccc1	-2.85
CCOc1ccc(CCN2CNc3c(C(=O)OC)cnn3C2)cc1	0.66

— publication PMC6919601, “Identification of Plasmodium dipeptidyl aminopeptidase allosteric inhibitors by high throughput screening” (PLoS ONE, 2019)
